# Results filed as inconclusive are left out. The source holds more than one record for some entries. The other results are left out here. An entry can have further records. The values listed for one entry differ for a reason that is not stated; some may be repeats, others may stem from another dose, organism or construct than stated.
# Tested on: mice, ADJ-PC-20 plasma cell tumor sc, T/C %
# Assay: NCI In Vivo Anticancer Drug Screen. Data for tumor model ADJ-PC-20 Plasma Cell (subcutaneous) in unknown mice
# Conditions: endpoint: mean tumor weight, higher = larger tumour
# Description: The antitumor activity of compounds was measured in mice bearing transplantable tumors. Survival or tumor size were measured and the results are expressed as the measurement made in the treated group (T) divided by the measurement made in the vehicle treated control group (C). The tumor model used in this assay is ADJ-PC-20 Plasma Cell (subcutaneous) in unknown mice
compound,measurement,setting,value
C[C@]12C=CC(=O)C=C1CC[C@@H]1[C@@H]2C(=O)C[C@@]2(C)[C@H]1CC[C@]2(O)C(=O)CO,T/C,"dose: 25.0 mg/kg/injection, schedule: Q01DX010 (sc), vehicle: steriod suspending solution","30 % of control, 44 % of control, 56 % of control"
same,T/C,"dose: 50.0 mg/kg/injection, schedule: Q01DX010 (sc), vehicle: steriod suspending solution","8 % of control, 40 % of control, 41 % of control"
CCN(CC)CCNc1ccc(C)c2sc3ccccc3c(=O)c12,T/C,"dose: 12.5 mg/kg/injection, schedule: Q01DX010 (ip), vehicle: methylcellulose (MC)",25 % of control and 98 % of control
same,T/C,"dose: 25.0 mg/kg/injection, schedule: Q01DX010 (ip), vehicle: methylcellulose (MC)",7 % of control and 75 % of control
same,T/C,"dose: 50.0 mg/kg/injection, schedule: Q01DX010 (ip), vehicle: methylcellulose (MC)",2 % of control and 84 % of control
O=P1(N(CCCl)CCCl)NCCCO1 (stereo unspecified),T/C,"dose: 6.3 mg/kg/injection, schedule: Q01DX010 (ip), vehicle: saline","22 % of control, 30 % of control, 87 % of control"

# Reference: PubChem BioAssay AID332 (DTP/NCI, 2004)
